Source: the RNAGym collection of RNA variant scans (doi:10.1093/nar/gkz1192)
The source gives no read counts; variants with many changes may rest on few reads.

B1: CPEB3 Ribozyme (parent)
chain: UAACAGGGGGCCACAGCAGAAGCGUUCACGUCGCAGCCCCUGUCAGAUUCUGGUGAAUCUGCGAAUUCUGCUGUAUAUCUC

Variants of: B1
Assay: self-cleavage, relative activity (ratio to wild type); higher = more cleavage; in vitro, sequencing
Summary of the method: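 For each CPEB3 ribozyme variant, relative activity is its cleaved/total read fraction divided by the unmutated ribozyme's. Barcoded error-prone PCR libraries were transcribed by T7 RNA polymerase (5 hours, 37°C) and held in DNase I for 15 min before an EDTA stop, with cleavage occurring throughout. Template-switching reverse transcription and Illumina sequencing were used to read the RNAs. A 5-read minimum applied, and results are the mean of three batches.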

Row | Variant | self-cleavage
1 | U49C U51C C59A | 0.08
2 | U49C U51C U60C | 0.17
3 | U49C U54A A57G | 0.21
4 | U49C U54G A64G | 0.43
5 | U49C U58A A64U | 0.1
6 | U49C U58C A75G | 0.11
7 | U49C U58C A77U | 0.16
8 | U49C U58C U67C | 0.18
9 | U49C U60C U67A | 0.4
10 | U49C U60C U69C U72C U80A | 0.05
11 | U49C U60C U72C C81A | 0.2
12 | U49C U60C U80G | 0.11
13 | U49C U66A U67C | 0.13
14 | U49C U66C U67C | 0.17
15 | U49C U66C U80C | 0.54
16 | U49C U72A A77G | 0.17
17 | U49G A64G A77U | 0.42
18 | U49G U58A U78C U80A | 0.08
19 | C50A C62U G70A A77G C79U U80C | 0.31
20 | C50A G61U C62A | 0.15
21 | C50A U69A U74C U78A | 0.45
22 | C50G A56G U74C | 1.1
23 | C50U C68A U74A | 0.44
24 | C50U G52A U76C | 0.75

Row | Variant | self-cleavage
25 | C50U U60C U72A | 0.15
26 | C50U U74C U76A | 1.22
27 | C50U U76C U80C | 1.13
28 | U51A A56G U69C | 0.28
29 | U51A A56G U80G | 0.84
30 | U51A A56U A57G U69C | 0.1
31 | U51A A57G C79U | 0.8
32 | U51A A57G U78C | 0.52
33 | U51A A64G U69C | 0.69
34 | U51A C62A U78A | 0.17
35 | U51A C71A U76A | 0.34
36 | U51A G55A A57C U58C U72A | 0.39
37 | U51A G55U A56U | 0.57
38 | U51A G55U U58C A64G | 0.28
39 | U51A G55U U60A U69A G73C A77G | 0.64
40 | U51A G61A A65G | 0.33
41 | U51A G70A A77G | 0.74
42 | U51A U54C C62U A64U | 0.21
43 | U51A U54C U80A | 1.05
44 | U51A U60C A64G U69C | 0.52
45 | U51A U60C C62A U69C | 0.47
46 | U51A U60C U74A | 1.05
47 | U51A U60C U80C | 0.58
48 | U51A U67C U69A U72A U74C | 0.5

Row | Variant | self-cleavage
49 | U51A U69C C81A | 0.98
50 | U51A U72A U80C | 1.29
51 | U51A U74A C81U | 1.35
52 | U51A U78C U80A | 1.22
53 | U51C A56G U69C | 0.53
54 | U51C A56G U78C | 0.51
55 | U51C A57G U69A | 0.39
56 | U51C A64G U69C | 0.53
57 | U51C C59G U66C A75U | 0.15
58 | U51C G52A A65G | 0.63
59 | U51C G52A U78A | 1.12
60 | U51C G52C U67C U72C | 0.64
61 | U51C G63A U76C | 0.87
62 | U51C U60A U69A | 0.41
63 | U51C U60C U80A | 0.4
64 | U51C U66A U80C | 0.48
65 | U51C U66C U67C | 0.37
66 | U51C U66C U80C | 0.56
67 | U51C U69C U72C U80G | 0.55
68 | U51C U74C A77G | 1.38
69 | U51G A57G G63A U66C | 0.41
70 | U51G A77U U80C | 1.15
71 | U51G U58C A65G U80A | 0.23
72 | U51G U69C U76C | 0.6

Row | Variant | self-cleavage
73 | G52A A56G U58C | 0.53
74 | G52A A56U C59A | 0.2
75 | G52A A57G C62G | 0.43
76 | G52A A65G U69C | 0.35
77 | G52A U58C U74C | 1.14
78 | G52A U72C C79A | 1.24
79 | G52U U54G A65G | 0.39
80 | G53A A64G U76A | 1.02
81 | G53A G73U A75U | 1.28
82 | G53A U67C U80A | 0.28
83 | G53A U72C A75G | 1.17
84 | G53A U72C U80A | 1.21
85 | G53C A57G A65G U72A U74C | 0.2
86 | G53C U58A A65G | 0.13
87 | G53C U78C U80C | 0.89
88 | G53U A65G A77C | 0.61
89 | U54A A56U A57G A65U | 0.13
90 | U54A A64G U72A U76C | 0.75
91 | U54A A75G U78C | 0.68
92 | U54A U58C A77U | 0.53
93 | U54A U58C U69C | 0.35
94 | U54A U58C U74G | 1.19
95 | U54A U58C U78C | 0.25
96 | U54A U60A A64G U67C | 0.42

Row | Variant | self-cleavage
97 | U54A U60A A65U | 0.44
98 | U54A U60A C62U U76A | 0.31
99 | U54C A56G U72C | 0.39
100 | U54C A56U C71U | 0.22
101 | U54C A57G U80A | 0.86
102 | U54C A64G A65U U80A | 0.14
103 | U54C A64G U67C | 0.19
104 | U54C A64G U67C U72A | 0.33
105 | U54C A64G U69C | 0.34
106 | U54C A64G U74C | 1.13
107 | U54C A64U U74C U78C | 0.23
108 | U54C A65G C81A | 0.52
109 | U54C C59U U67C | 0.11
110 | U54C C71G A75U C81U | 0.58
111 | U54C C71U U72C | 0.51
112 | U54C G55U U67C | 0.16
113 | U54C G63U U69G | 0.87
114 | U54C G73U A77U | 0.7
115 | U54C U58C A64G | 0.15
116 | U54C U58C U60C A64U | 0.33
117 | U54C U60A G70A U80C | 0.26
118 | U54C U60A U67C A77U | 0.41
119 | U54C U60C A64G C68G U78C | 0.29
120 | U54C U60C A65U U69C U72A | 0.24

Row | Variant | self-cleavage
121 | U54C U60C C81U | 0.61
122 | U54C U66C U67A U72C A75C U78C | 0.13
123 | U54C U67C U72A | 0.16
124 | U54C U67C U72C | 0.19
125 | U54C U67C U78C | 0.17
126 | U54C U67C U80A | 0.11
127 | U54C U67G U74C | 0.42
128 | U54C U74A C79A | 1.29
129 | U54C U74C U78C | 1.13
130 | U54C U76A U78C | 1.08
131 | U54G A56G U60C | 0.25
132 | U54G A56U U78C | 0.33
133 | U54G A57G G70U | 0.17
134 | U54G A64G U66C | 0.19
135 | G55A A57G G61A | 0.27
136 | G55A U60A G61U U76A | 0.18
137 | G55A U69C U80C | 0.3
138 | G55C U58C A65G C68A | 0.08
139 | G55C U60C U69C U80C | 0.29
140 | G55U U58A U69A | 0.17
141 | G55U U67C U72C U80C | 0.21
142 | A56C U72A C81U | 0.45
143 | A56G A57G A64G | 0.3
144 | A56G A57G C62U A64U U74C C79A | 0.14
